Data: PubChem BioAssay (NCI)
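Compound exposure: 48 hours, 5 concentrations, 96-well plates. TGI marks complete inhibition of growth.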 For part of its entries the source gives two or more results. The list is limited to them. An entry can have further records. The tests behind the records often covered other concentration ranges, which the source does not state; a value can be the end of its range.

System: MDA-MB-468 breast
Experiment: NCI-60 cell line screen, 48 h

**Q.** How did the TGI turn out when CC[C@H](C)[C@H](NC(=O)[C@H]1CCCCN1C)C(=O)N(C)[C@H](C[C@@H](OC(C)=O)c1cccc(C(=O)N[C@@H](Cc2ccccc2)C[C@H](C)C(=O)O)n1)C(C)C was run?
**A.** 279 nM and > 25 µM
